# Measured values reported in the supplement of paper PMC8728848.
# This is one part of the list.
# What was measured:
# Test in all cases: glycan array binding signal (z-score within array); higher = stronger binding
# Details in all cases: glycan notation: IUPAC condensed, linker removed
# [1] = biological target: Fuc(a1-2)Gal(b1-4)[Fuc(a1-3)]GlcNAc
# Procedure, shortened: (§1)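 Arrays were curated from the Consortium for Functional Glycomics database, 3228 in total, and kept only where the protein sequence was available. Binding is expressed as a within-array Z-score. This score was averaged across arrays of the same protein sequence at different concentrations or buffers and across linkers, and negative values can be read as non-binding.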
# [2] = biological target: Fuc(a1-2)Gal(b1-4)[Fuc(a1-3)]GlcNAc(b1-2)Man(a1-3)[Fuc(a1-2)Gal(b1-4)[Fuc(a1-3)]GlcNAc(b1-2)Man(a1-6)]Man(b1-4)GlcNAc(b1-4)GlcNAc
# Procedure, shortened: as §1
# [3] = biological target: Fuc(a1-2)Gal(b1-4)[Fuc(a1-3)]GlcNAc(b1-2)[Fuc(a1-2)Gal(b1-4)[Fuc(a1-3)]GlcNAc(b1-4)]Man(a1-3)[Fuc(a1-2)Gal(b1-4)[Fuc(a1-3)]GlcNAc(b1-2)Man(a1-6)]Man(b1-4)GlcNAc(b1-4)GlcNAc
# Procedure, shortened: as §1
# [4] = biological target: Fuc(a1-2)Gal(b1-4)[Fuc(a1-3)]GlcNAc(b1-3)Gal(b1-4)[Fuc(a1-3)]GlcNAc
# Procedure, shortened: as §1
# [5] = biological target: Fuc(a1-2)Gal(b1-4)[Fuc(a1-3)]GlcNAc(b1-3)Gal(b1-4)[Fuc(a1-3)]GlcNAc(b1-3)Gal(b1-4)[Fuc(a1-3)]GlcNAc
# Procedure, shortened: as §1
# [6] = biological target: Fuc(a1-2)Gal(b1-4)[Fuc(a1-3)]GlcNAc(b1-3)GalNAc
# Procedure, shortened: as §1
# Fuc(a1-2)Gal6S(b1-4)Glc = biological target: Fuc(a1-2)Gal6S(b1-4)Glc
# Procedure, shortened: as §1
# [7] = biological target: Fuc(a1-2)Gal6S(b1-4)Glc6S
# Procedure, shortened: as §1
# [8] = biological target: Fuc(a1-2)Gal6S(b1-4)GlcNAc
# Procedure, shortened: as §1
# Fuc(a1-2)[Gal(a1-3)]Gal = biological target: Fuc(a1-2)[Gal(a1-3)]Gal
# Procedure, shortened: as §1
# [9] = biological target: Fuc(a1-2)[Gal(a1-3)]Gal(b1-3)GalNAc
# Procedure, shortened: as §1
# [10] = biological target: Fuc(a1-2)[Gal(a1-3)]Gal(b1-3)GlcNAc
# Procedure, shortened: as §1
# [11] = biological target: Fuc(a1-2)[Gal(a1-3)]Gal(b1-3)GlcNAc(b1-2)Man(a1-3)[Fuc(a1-2)[Gal(a1-3)]Gal(b1-3)GlcNAc(b1-2)Man(a1-6)]Man(b1-4)GlcNAc(b1-4)GlcNAc
# Procedure, shortened: as §1
# [12] = biological target: Fuc(a1-2)[Gal(a1-3)]Gal(b1-3)GlcNAc(b1-2)Man(a1-3)[Fuc(a1-2)[Gal(a1-3)]Gal(b1-3)GlcNAc(b1-2)Man(a1-6)]Man(b1-4)GlcNAc(b1-4)[Fuc(a1-6)]GlcNAc
# Procedure, shortened: as §1
# [13] = biological target: Fuc(a1-2)[Gal(a1-3)]Gal(b1-3)GlcNAc(b1-3)GalNAc
# Procedure, shortened: as §1
# [14] = biological target: Fuc(a1-2)[Gal(a1-3)]Gal(b1-4)Glc
# Procedure, shortened: as §1
# [15] = biological target: Fuc(a1-2)[Gal(a1-3)]Gal(b1-4)GlcNAc
# Procedure, shortened: as §1
# [16] = biological target: Fuc(a1-2)[Gal(a1-3)]Gal(b1-4)GlcNAc(b1-2)Man(a1-3)[Fuc(a1-2)[Gal(a1-3)]Gal(b1-4)GlcNAc(b1-2)Man(a1-6)]Man(b1-4)GlcNAc(b1-4)GlcNAc
# Procedure, shortened: as §1
# [17] = biological target: Fuc(a1-2)[Gal(a1-3)]Gal(b1-4)GlcNAc(b1-2)Man(a1-3)[Fuc(a1-2)[Gal(a1-3)]Gal(b1-4)GlcNAc(b1-2)Man(a1-6)]Man(b1-4)GlcNAc(b1-4)[Fuc(a1-6)]GlcNAc
# Procedure, shortened: as §1
# [18] = biological target: Fuc(a1-2)[Gal(a1-3)]Gal(b1-4)GlcNAc(b1-3)GalNAc
# Procedure, shortened: as §1
# [19] = biological target: Fuc(a1-2)[Gal(a1-3)]Gal(b1-4)[Fuc(a1-3)]Glc
# Procedure, shortened: as §1
# [20] = biological target: Fuc(a1-2)[Gal(a1-3)]Gal(b1-4)[Fuc(a1-3)]GlcNAc
# Procedure, shortened: as §1
# [21] = biological target: Fuc(a1-2)[Gal(a1-3)]Gal(b1-4)[Fuc(a1-3)]GlcNAc(b1-3)GalNAc
# Procedure, shortened: as §1
# [22] = biological target: Fuc(a1-2)[Gal(a1-4)]Gal(b1-4)GlcNAc
# Procedure, shortened: as §1
# [23] = biological target: Fuc(a1-2)[GalNAc(a1-3)]Gal
# Procedure, shortened: as §1
# [24] = biological target: Fuc(a1-2)[GalNAc(a1-3)]Gal(b1-3)GalNAc(a1-3)[Fuc(a1-2)]Gal(b1-4)GlcNAc
# Procedure, shortened: as §1
# [25] = biological target: Fuc(a1-2)[GalNAc(a1-3)]Gal(b1-3)GlcNAc
# Procedure, shortened: as §1
# [26] = biological target: Fuc(a1-2)[GalNAc(a1-3)]Gal(b1-3)GlcNAc(b1-2)Man(a1-3)[Fuc(a1-2)[GalNAc(a1-3)]Gal(b1-3)GlcNAc(b1-2)Man(a1-6)]Man(b1-4)GlcNAc(b1-4)GlcNAc
# Procedure, shortened: as §1
# [27] = biological target: Fuc(a1-2)[GalNAc(a1-3)]Gal(b1-3)GlcNAc(b1-2)Man(a1-3)[Fuc(a1-2)[GalNAc(a1-3)]Gal(b1-3)GlcNAc(b1-2)Man(a1-6)]Man(b1-4)GlcNAc(b1-4)[Fuc(a1-6)]GlcNAc
# Procedure, shortened: as §1
# [28] = biological target: Fuc(a1-2)[GalNAc(a1-3)]Gal(b1-3)GlcNAc(b1-3)GalNAc
# Procedure, shortened: as §1
# [29] = biological target: Fuc(a1-2)[GalNAc(a1-3)]Gal(b1-4)Glc
# Procedure, shortened: as §1
# [30] = biological target: Fuc(a1-2)[GalNAc(a1-3)]Gal(b1-4)GlcNAc
# Procedure, shortened: as §1
# [31] = biological target: Fuc(a1-2)[GalNAc(a1-3)]Gal(b1-4)GlcNAc(b1-2)Man(a1-3)[Fuc(a1-2)[GalNAc(a1-3)]Gal(b1-4)GlcNAc(b1-2)Man(a1-6)]Man(b1-4)GlcNAc(b1-4)GlcNAc
# Procedure, shortened: as §1
# [32] = biological target: Fuc(a1-2)[GalNAc(a1-3)]Gal(b1-4)GlcNAc(b1-2)Man(a1-3)[Fuc(a1-2)[GalNAc(a1-3)]Gal(b1-4)GlcNAc(b1-2)Man(a1-6)]Man(b1-4)GlcNAc(b1-4)[Fuc(a1-6)]GlcNAc
# Procedure, shortened: as §1
# [33] = biological target: Fuc(a1-2)[GalNAc(a1-3)]Gal(b1-4)GlcNAc(b1-3)Gal(b1-4)GlcNAc
# Procedure, shortened: as §1
# [34] = biological target: Fuc(a1-2)[GalNAc(a1-3)]Gal(b1-4)GlcNAc(b1-3)Gal(b1-4)GlcNAc(b1-3)Gal(b1-4)GlcNAc
# Procedure, shortened: as §1
# [35] = biological target: Fuc(a1-2)[GalNAc(a1-3)]Gal(b1-4)GlcNAc(b1-3)GalNAc
# Procedure, shortened: as §1
binder,measurement,setting,value
SCA (Schizophyllum commune) (protein) MGIDQGVYLITNAGSGTAATLKDGYVKGWERIKGKEQLNQLWFVKSVKTSASDPGYAAFNLATNKVLDLEKGLADRGTPILGWDYHEGDNQHWVIKKQADGKYYKIQSVKTQTFVDLNNGGKDNGTKIQGWVGSWDETNSHQRWVFNQFSATGSRIKSILDTHPKIHGKVIVEWPDRIYFTPDQYIFEAIWAKTGLADIKPRDPLFQSEAYEKVFKGWVVSRAQEIIKVDGFDILVGSLSLVEKSTQKIKVLDVSVRTSDDKSPDLSQIVFFDPESGRTLVDIPEGYEVNSVII,glycan array binding signal (z-score),[1],-0.16
same,glycan array binding signal (z-score),[2],-0.163
same,glycan array binding signal (z-score),[3],-0.159
same,glycan array binding signal (z-score),[4],-0.158
same,glycan array binding signal (z-score),[5],-0.161
same,glycan array binding signal (z-score),[6],-0.157
same,glycan array binding signal (z-score),Fuc(a1-2)Gal6S(b1-4)Glc,-0.159
same,glycan array binding signal (z-score),[7],-0.158
same,glycan array binding signal (z-score),[8],-0.161
same,glycan array binding signal (z-score),Fuc(a1-2)[Gal(a1-3)]Gal,1.38
same,glycan array binding signal (z-score),[9],-0.157
same,glycan array binding signal (z-score),[10],-0.142
same,glycan array binding signal (z-score),[11],0.006
same,glycan array binding signal (z-score),[12],-0.152
same,glycan array binding signal (z-score),[13],-0.161
same,glycan array binding signal (z-score),[14],-0.155
same,glycan array binding signal (z-score),[15],5.61
same,glycan array binding signal (z-score),[16],7.08
same,glycan array binding signal (z-score),[17],1.77
same,glycan array binding signal (z-score),[18],2.52
same,glycan array binding signal (z-score),[19],-0.163
same,glycan array binding signal (z-score),[20],-0.161
same,glycan array binding signal (z-score),[21],-0.161
same,glycan array binding signal (z-score),[22],-0.088
same,glycan array binding signal (z-score),[23],-0.159
same,glycan array binding signal (z-score),[24],-0.161
same,glycan array binding signal (z-score),[25],-0.163
same,glycan array binding signal (z-score),[26],-0.144
same,glycan array binding signal (z-score),[27],-0.16
same,glycan array binding signal (z-score),[28],-0.156
same,glycan array binding signal (z-score),[29],-0.162
same,glycan array binding signal (z-score),[30],-0.161
same,glycan array binding signal (z-score),[31],-0.162
same,glycan array binding signal (z-score),[32],-0.161
same,glycan array binding signal (z-score),[33],-0.161
same,glycan array binding signal (z-score),[34],-0.011
same,glycan array binding signal (z-score),[35],-0.162
